Measured values: PubChem BioAssay AID1460 (National Center for Advancing Translational Sciences (NCATS), 2008)
Screen size: about 270,000 compounds; about 5,800 (2.1%) were called active. Inconclusive means that the source gave no clear call. Such entries were picked first, then a sample of the others. Calls come from the whole dose curve; as a rule, active = well fitted inhibition curve with a large enough effect; inconclusive = small, poorly fitted or top-dose-only effect; inactive = flat fitted curve, though single readings scatter. Potencies of inconclusive entries are doubtful fits and often do not repeat.

molecular target: Microtubule-associated protein tau (Homo sapiens) (UniProt P10636); assay: qHTS for Inhibitors of Tau Fibril Formation, Thioflavin T Binding; settings: recombinant tau K18 P301L (four-repeat tau fragment), heparin-induced fibrillization, ThT fluorescence; series mostly up to 57.4 µM; note: nearly all actives have a fitted effect of over 55% in size
Chain of UniProt P10636 (P10636 whole entry, looked up, the tested form may be a part): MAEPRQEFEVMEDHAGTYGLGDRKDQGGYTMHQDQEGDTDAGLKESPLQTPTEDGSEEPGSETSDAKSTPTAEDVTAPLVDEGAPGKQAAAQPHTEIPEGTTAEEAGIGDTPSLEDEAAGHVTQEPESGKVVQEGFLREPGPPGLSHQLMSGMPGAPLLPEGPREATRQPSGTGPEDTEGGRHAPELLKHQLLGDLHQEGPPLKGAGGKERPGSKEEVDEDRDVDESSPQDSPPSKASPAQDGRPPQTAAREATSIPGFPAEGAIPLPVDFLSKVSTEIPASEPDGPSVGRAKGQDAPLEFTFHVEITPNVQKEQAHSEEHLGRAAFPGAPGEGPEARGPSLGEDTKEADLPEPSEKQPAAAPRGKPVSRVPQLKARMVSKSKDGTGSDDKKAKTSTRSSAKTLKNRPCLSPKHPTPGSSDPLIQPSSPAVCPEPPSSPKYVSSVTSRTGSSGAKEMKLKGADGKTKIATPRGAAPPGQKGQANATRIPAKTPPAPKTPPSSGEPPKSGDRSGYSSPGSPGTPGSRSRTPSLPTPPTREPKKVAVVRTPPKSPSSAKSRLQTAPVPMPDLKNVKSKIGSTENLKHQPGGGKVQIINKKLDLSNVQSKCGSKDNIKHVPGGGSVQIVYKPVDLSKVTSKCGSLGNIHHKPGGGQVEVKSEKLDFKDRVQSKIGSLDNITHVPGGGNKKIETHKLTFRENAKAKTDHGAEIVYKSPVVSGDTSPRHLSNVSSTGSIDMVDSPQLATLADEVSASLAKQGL
How it was run: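 Aggregation was driven by heparin (20 uM final) acting on recombinant tau […] bearing P301L in 100 mM sodium acetate pH 7; fibrils were detected with Thioflavin T.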
% is set by controls: 0 for no effect and ±100 for the full control effect; potency is the fitted concentration of half-maximal effect; tags give direction and shape of the fitted curve.

Row | Compound | Potency | activity, negative = inhibition
1 | Cc1ccc(-c2nc3ccccc3[nH]2)cc1NC(=O)/C=C/c1ccco1 | inconclusive: 15.8 µM [inhibitor, partial curve] | 
2 | CN(CCO)c1cc(Sc2nc3ccccc3s2)c2nonc2c1[N+](=O)[O-] | active: 28.2 µM | 
3 | Cc1ccc(NC(=S)Nc2cccnc2)c(S(=O)(=O)N2CCCCC2)c1 | inactive | 
4 | Cc1cccc(-c2nc(SCC(=O)Nc3cc(C)on3)c3c(=O)n(C)c(=O)n(C)c3n2)c1 | inactive | 
5 | COc1ccccc1CNc1nc2nc(C)c(Cl)c(C)n2n1 | inactive | 
6 | O=C1c2cccc3c([N+](=O)[O-])ccc(c23)C(=O)N1Cc1cccnc1 | inconclusive: 14.1 µM [inhibitor, partial curve] | 
7 | Cc1ccc(CNc2ccc3c(c2)OCO3)c(C)c1 | active: 12.6 µM | 
8 | COc1cc(/C=N/NC(=O)c2ccccc2O)ccc1OC(=O)CC1SC(=O)NC1=O (configuration not stated) | inconclusive: 3.16 µM [inhibitor, partial curve] | 
9 | COc1cc(-c2nc(-c3ccc(Br)o3)no2)cc(OC)c1OC | inactive | 
10 | CCOCC(=O)Nc1cc([N+](=O)[O-])ccc1OC | inactive | 
11 | Cc1ccc(NC(=O)CSc2nc3ccccc3nc2Cc2ccccc2F)cc1F | inconclusive: 0.0251 µM [inhibitor, full curve, poor fit] | 
12 | COc1cccc(C2CC(c3ccccc3)Nc3ncnn32)c1 (configuration not stated) | inactive | 
13 | COc1ccccc1NC(=S)NNC(=S)Nc1ccc(OC(F)F)cc1 | inconclusive: 11.2 µM [inhibitor, partial curve] | 
14 | C=CCNC(=O)N1CCc2nc(-c3ccc(OC)cc3C)c3c(c2C1)CO[C@@H](c1ccccc1)C3 |  | inactive: 6.79% [at 11.5 µM]
15 | COc1cc(/C=C2\SC(=O)N(CC(=O)Nc3cccc(C)c3)C2=O)cc([N+](=O)[O-])c1O | active: 12.6 µM | 
16 | Cc1nnnn1/C(=C\c1ccccc1)C(=O)OCC(=O)NC(C)(C)C | inactive | 
17 | Cc1[nH]ncc1N=Cc1ccc([N+](=O)[O-])cc1 | inconclusive: 31.6 µM [inhibitor, single point] | 
18 | Cc1ccccc1CCNC(=O)c1ccc2c(c1)c(C)c(C)n2C | inconclusive: 15.8 µM [inhibitor, partial curve] | 
19 | COc1cc(C2NC(=O)C(C#N)=C(S)N2c2ccccc2)ccc1OC(C)C (configuration not stated) | inconclusive: 35.5 µM [inhibitor, single point] | 
20 | COC(=O)c1cc2oc3ccccc3c2n1Cc1cccc(C)c1 | inactive | 
21 | O=C(CSc1nnnn1C1CCCCC1)Nc1cccc(NC(=O)c2ccco2)c1 | inconclusive: 31.6 µM [inhibitor, single point] | 
22 | CCN1CCN(c2nc(Nc3cc(OC)ccc3OC)nc(Nc3cc(OC)ccc3OC)n2)CC1 | inconclusive: 39.8 µM [inhibitor, single point] | 
23 | CC/C=C\C/C=C\C/C=C\C/C=C\C/C=C\C/C=C\CCC(=O)O[C@H](COCCCCCCCCCCCCCCCC)COP(=O)([O-])OCC[N+](C)(C)C | inactive | 
24 | COc1ccc(OC)c(NC(=O)c2nnn(Cc3ccccc3C)c2N)c1 | inconclusive: 39.8 µM [inhibitor, single point] | 

Row | Compound | Potency | activity, negative = inhibition
25 | Cn1c(SC/C=C/c2ccccc2)nnc1-c1cnccn1 | inconclusive: 17.8 µM [inhibitor, partial curve] | 
26 | CCOc1ccc(NC(=S)N=Nc2c(O)[nH]c3ccccc23)cc1 | inconclusive: 2.24 µM [inhibitor, full curve] | 
27 | O=C(O)c1ccccc1-c1oc2cc(O)ccc2c(=O)c1Oc1ccccc1 | inactive | 
28 | Cn1nnnc1SCCCNCc1ccc(-c2ccc(Br)cc2)o1 | inactive | 
29 | CCN(CC)S(=O)(=O)c1ccc(N2CCN(CCO)CC2)nc1 | inactive | 
30 | CCOC(=O)C/C(C)=N\Nc1ccc([N+](=O)[O-])cc1[N+](=O)[O-] | inconclusive: 15.8 µM [inhibitor, partial curve] | 
31 | Cc1ccc(C)c(C(=O)OCC(=O)Nc2ccc(N3CCOCC3)cc2)c1 | inconclusive: 8.91 µM [inhibitor, partial curve] | 
32 | Cc1ccc(C)c(N2CCN(C(=O)c3cc4ccc5cccnc5c4[nH]3)CC2)c1 | inconclusive: 15.8 µM [inhibitor, partial curve] | 
33 | Cc1ccc(Nc2n[nH]c(C)c2[N+](=O)[O-])c(C)c1 | inconclusive: 28.2 µM [inhibitor, partial curve] | 
34 | COC(=O)c1ccccc1NC(=S)NC(NC(=O)c1ccccc1[N+](=O)[O-])C(Cl)(Cl)Cl (configuration not stated) | inconclusive: 22.4 µM [inhibitor, partial curve, poor fit] | 
35 | COc1ccc2nc(NC(=O)C3CCCN(S(=O)(=O)c4c(C)noc4C)C3)sc2c1 (configuration not stated) | inconclusive: 8.91 µM [inhibitor, partial curve, poor fit] | 
36 | C/C(=N/NC(=O)c1ccccc1O)c1ccc(N2C(=O)C3CCCCC3C2=O)cc1 (configuration not stated) | inconclusive: 22.4 µM [inhibitor, partial curve] | 
37 | Cc1cccc2c1N(CCCOc1ccccc1)C(=O)C2=O | inconclusive: 15.8 µM [inhibitor, partial curve] | 
38 | COc1ccc(NC(=O)c2cccnc2Nc2ccccc2)cc1 | inactive | 
39 | O=c1[nH]c(-c2ccc(F)cc2)nc2c1sc(=S)n2-c1ccccc1 | inactive | 
40 | CC(=O)COc1ccc2c3c(c(=O)oc2c1)CCCC3 | inconclusive: 15.8 µM [inhibitor, partial curve, poor fit] | 
41 | CN(C)CCCN(C(=O)COc1ccccc1)c1nc2c(Cl)cccc2s1 | inactive | 
42 | O=C(Nc1ccccc1Cl)N1CCN(c2ccc3nnc(-c4ccccc4)n3n2)CC1 | inconclusive: 28.2 µM [inhibitor, partial curve] | 
43 | Oc1ccccc1-c1nnc(COc2ccc(Cl)cc2Cl)o1 | inconclusive: 25.1 µM [inhibitor, partial curve] | 
44 | COC(=O)C1=C(C(=O)OC)SC2(S1)C(C(=O)OC)=C(C(=O)OC)SC1=C2c2cccc(C)c2NC1(C)C | active: 14.1 µM | 
45 | O=[N+]([O-])c1ccc(/C=N/Nc2nc(N3CCCCCC3)nc(N3CCCCCC3)n2)o1 | inconclusive: 10 µM [inhibitor, partial curve] | 
46 | Cc1ccc(NC(N)=S)cc1C | inactive | 
47 | Cc1nnc(C)n1/N=C/c1ccc(O)cc1 | inactive | 
48 | CCc1ccc(C2=CC(c3cc(Br)ccc3F)n3ncnc3N2)cc1 (configuration not stated) | inconclusive: 17.8 µM [inhibitor, single point] | 

Row | Compound | Potency | activity, negative = inhibition
49 | CC(/C=N/n1c(-c2cccnc2)n[nH]c1=S)=C\c1ccccc1 | inconclusive: 35.5 µM [inhibitor, single point] | 
50 | O=c1c2ccccc2nc(SCCN2CCCCC2)n1CCc1ccccc1 | inconclusive: 7.94 µM [inhibitor, full curve] | 
51 | c1ccc(-c2ccccc2-c2nc(-c3ccncc3)no2)cc1 | inconclusive: 35.5 µM [inhibitor, single point] | 
52 | COc1cc(C(=O)NCC(c2ccc(N(C)C)cc2)N2CCc3ccccc32)cc(OC)c1OC (configuration not stated) | inconclusive: 25.1 µM [inhibitor, partial curve] | 
53 | Cc1cc2c3c(c1C)C(=O)C(=O)N3C(C)(C)CC2C (configuration not stated) | inconclusive: 12.6 µM [inhibitor, partial curve] | 
54 | O=[N+]([O-])c1ccc2cn[nH]c2c1 | inconclusive: 20 µM [inhibitor, partial curve] | 
55 | COc1cc(C(=O)Nc2nnc(S(=O)(=O)N(C)c3ccccc3)s2)cc(OC)c1OC | inconclusive: 0.251 µM [inhibitor, full curve] | 
56 | Cc1ccc(CN2C(=O)c3ccccc3Sc3ccc(C(=O)NC4CCCCC4)cc32)cc1 | inactive | 
57 | COc1ccc(-c2oc3ncn4nc(-c5cccc(C)c5)nc4c3c2-c2ccc(OC)cc2)cc1 | inactive | 
58 | Cn1cccc1/C=C1\SC(=S)N(NC(=O)c2ccc(F)cc2)C1=O | active: 3.55 µM | 
59 | Cc1nc2c3cc(F)ccc3n(Cc3ccccc3)c2s1 | inconclusive: 39.8 µM [inhibitor, single point] | 
60 | COc1ccc(CN(Cc2cc3ccc(C)cc3[nH]c2=O)Cc2nnnn2C2CCCC2)cc1 | inconclusive: 28.2 µM [inhibitor, partial curve] | 
61 | CC(=O)N1CCc2c(sc(NC(=O)c3ccc4c(c3)OCCO4)c2C#N)C1 | inconclusive: 17.8 µM [inhibitor, partial curve] | 
62 | CCCSc1nc2sc3c(c2c(=O)n1-c1ccccc1)CCC(C)C3 (configuration not stated) | inconclusive: 1.58 µM [inhibitor, partial curve, poor fit] | 
63 | Cn1c(N/N=C2\CCCc3ccccc32)nc2c1c(=O)n(Cc1ccc(F)cc1)c(=O)n2C | inconclusive: 8.91 µM [inhibitor, partial curve] | 
64 | Cc1ccc(C(=O)c2oc3nc(C)cc(C)c3c2N)cc1 | inconclusive: 22.4 µM [inhibitor, single point] | 
65 | Cc1nn(C(=O)c2ccc(Cl)cc2)c(C)c1Sc1ccc(Cl)cc1 | inactive | 
66 | COC(=O)C1(C)C=CC2(CCCCC2)N1C(=O)c1ccccc1 (configuration not stated) | inactive | 
67 | COc1ccc(C2=NN(CN3C(=O)C(=O)c4ccccc43)C(c3ccc(C)cc3)C2)cc1 (configuration not stated) | inconclusive: 17.8 µM [inhibitor, partial curve] | 
68 | COc1cc(NC(=O)SC2=NCCS2)cc(OC)c1 | inactive | 
69 | COC(=O)c1cccc(NC(=O)C2CCN(S(=O)(=O)Cc3ccccc3)CC2)c1C | inactive | 
70 | O=C(N/N=C/c1ccc([N+](=O)[O-])o1)c1cc2c(ccc3ccccc32)o1 | active: 1.12 µM | 
71 | Nc1ncnc(N2CCOCC2)c1N | inactive | 
72 | Cc1ccc2c(c1)-c1c(ssc1=S)C(C)(C)N2C(=O)CSC1=NCCS1 | inconclusive: 7.94 µM [inhibitor, partial curve] | 
